# Article PMC12040169 (PLOS Biology, 2025)
# The list shows a part of the results.
# Test system: T1, C. trachomatis L2/434/Bu expressing GFP (CTL2-GFP)
# T1 construct: L2/434/Bu GFP intracellular growth in HeLa cells
# Design: species or system HeLa; C. trachomatis total inclusion area by high-content imaging, normalised to DMSO
# Settings: total inclusion area; 28.5 h, 10 µM; inhibitor
# Summary of the method: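 High-content images of fixed, Hoechst-stained infected cultures supply inclusion area and count (growth) plus nuclei number (viability), complementing bulk GFP/resorufin fluorescence. MIC determination is unchanged from the primary assay.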
row,Structure (SMILES),% of control remaining
1,COc1ccc(C(=O)C2=C(O)C(=O)N(Cc3cccnc3)C2c2cccc([N+](=O)[O-])c2)cc1 (stereo not drawn) [CBK264661],102.864
2,Cc1ccccc1C(NC(=O)C1CCN(C(=O)NCc2ccccc2)CC1)c1ncccc1C (stereo not drawn) [CBK060398],99.8585
3,CC(C)c1ccc(NC(=O)NC(=O)C2CCN(CCOc3ccc4ccccc4c3)CC2)c(C(C)C)c1 [CBK034883],95.5403
4,O=C(N/N=C\c1ccc(OCc2ccccc2)cc1)C1COc2cc3ccccc3cc2O1 (stereo not drawn) [CBK262764],110.825
5,CCOC(=O)N1CCC(NS(=O)(=O)/C=C/c2ccccc2)CC1 [CBK045458],94.1592
6,COc1ccc([C@@H]2CCN(C(=O)c3cc(F)cc(F)c3)C[C@H]2O)cc1 [CBK283757],72.4862
7,FC(F)CN1CCN(Cc2ccc(Oc3cnccn3)cc2)CC1 [CBK306399],37.4065
8,CC(C(=O)Nc1ccc(S(N)(=O)=O)cc1)N(C)Cc1ccccc1F (stereo not drawn) [CBK305840],38.8617
9,CCCOCCCNS(=O)(=O)c1ccc(C(C)(C)CC)cc1 [CBK044821],89.6224
10,Cc1ccc(-c2nnc(S)n2/N=C\c2ccccc2OCC(=O)O)cc1 [CBK264408],95.8297
11,COC[C@H]1CCCN1C(=O)[C@@H](C)C1CC[C@@]2(C)CC[C@H](NC(C)=O)[C@@H](C)[C@@H]2[C@H]1O (stereo partly drawn) [CBK289438],119.004
12,O=C(c1ccc(-n2cccn2)nc1)N1CCN(c2ccccc2O)CC1 [CBK297794],84.0916
13,O=C(Nc1ccc(F)cc1)c1ccccc1NS(=O)(=O)c1ccc(C(F)(F)F)cc1[N+](=O)[O-] [CBK045439],84.9714
14,Nc1nc(OCCN2CCCC2=O)cnc1-c1cc(Cl)cc(Cl)c1 [CBK145199],110.069
15,COc1ccc(CCCC(=O)N2CCC(c3c(C(N)=O)sc4ccccc34)C2)cc1C (stereo not drawn) [CBK285848],107.322
16,Nc1nonc1N/N=C/c1ccccc1F [CBK028838],46.0283
17,CCCCNS(=O)(=O)c1ccc(Cl)c(Cl)c1 [CBK044309],77.9347
18,Cn1nc(C2CCN(C(=O)CC3CCCC3)CC2)c2cccnc21 [CBK284943],109.034
19,CCCCc1cc(C[C@@H]2C[C@H](NC(=O)N3CCOCC3)C2(C)C)no1 [CBK289257],134.527
20,O=C(CCc1ccncc1)N1CCCCC1CN1CCCCCC1 (stereo not drawn) [CBK282102],99.7239
21,O=C(c1cccs1)N1CCN(Cc2cc(=O)n3ccsc3n2)CC1 [CBK305872],75.2424
